The supplement of paper PMC10338343
± gives the standard deviation. This is a selection; strong and weak results do not stand in their true shares.

What follows are sequences tested on MIWI (PIWIL1) piRISC loaded with piRNA #1 (30 nt) (assay: pre-steady-state target cleavage rate (min^-1); MIWI and MILI are mouse PIWI proteins and EfPiwi is from a freshwater sponge; tags in brackets are library labels; higher = faster piRNA-guided slicing of the target). Conditions: guide: piRNA #1 5'p-UGAGGUAGUAGGUUGUAUAGUAUCCAGAGG; auxiliary factor: 500 nM mouse GTSF1.
In short: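 Cleave-'n-Seq: 1 nM active affinity-purified piRISC with one synthetic guide and 0.1 nM transcribed, DNA-blocked target RNA library were mixed, with or without 500 nM GTSF1 partner protein, in HEPES–potassium acetate buffer at 33 °C for 0–8 or 0–960 min. Uncleaved targets were sequenced and normalised to depth and to weakly complementary targets, three trials were pooled, and k3 was capped at 0.0001 min^-1. The pre-steady-state cleavage rate was fitted […].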

Row | Sequence | pre-steady-state target cleavage rate
1 | GCUCUGGUAACUAUACAACCUACUACCUCA | 1.81 ± 0.12
2 | GGUUUGGAUACUAUACAACCUACUACCUCA | 1.81 ± 0.084
3 | GCUCUGGAAACUAUACAACCAACUACCUCA | 0.171 ± 0.022
4 | GGUCUGGAGACUAUACAACCUACUACCUCA | 1.9 ± 0.14
5 | GGAGACCUUACUAUACAACCUAUCUACCUCA | 0.101 ± 0.018
6 | GGAGACCAUACUAUACAACCUACUUCCUGA | 0.32 ± 0.049
7 | CCUCUGGAUACUAUACAUCCUACUAGCUCA | 0.82 ± 0.072
8 | GGAGUGGAGACUAUACAACCUACUACCUCA | 1.65 ± 0.099
9 | GGAGACCUUACUAUUCAACCUACUUCCUCA | 0.181 ± 0.025
10 | GGAGACCUAUGAUAUGAUCCAACUACCUCA | < 0.0001
11 | GCUCUGGAUACUAUACAACCUUGUACCUCA | 0.0481 ± 0.0085
12 | GGAGACGAUACUAUAGAUCCUACUACCUCA | 0.901 ± 0.049
13 | GGACUGGAUAGUUUACAACCUACUACCUCA | 0.624 ± 0.066
14 | GCUCUGGUUACUAAACAACCUACUACCUCA | 1.84 ± 0.11
15 | GGAGACCAUACUAUAGAACCUACUUCCUCA | 0.243 ± 0.052
16 | GGUCUCGAUACUAUACAACCUACUAGCUCA | 0.184 ± 0.028
17 | GGAGACCUUACUUUUCAACCUACUACCUCA | 0.0873 ± 0.012
18 | GGAGACCUUACUUUACAACCUACUUCCUCA | 0.0759 ± 0.013
19 | GCUACUGGAUACUAUACAACCUACUACCUCA | 2.14 ± 0.13
20 | GGAGUGGAUACUAACAACCUACUACCUCA | 1.37 ± 0.11

Row | Sequence | pre-steady-state target cleavage rate
21 | GCUGUGGAUACUUUACAACCUACUACCUCA | 1.62 ± 0.087
22 | GGAGAGCAUACUAUACAACCUACUACGUCA | 0.978 ± 0.08
23 | GGAGACCUAACUAUACUACCUACUACCACA | 0.052 ± 0.012
24 | GGAGACCUAUCUAUACAACCCACUACCUCA | 0.267 ± 0.022
25 | CCUCUGGAUACUAUACAACCUUGUACCUCA | 0.0534 ± 0.012
26 | GGACAGGAUACUAUACAACCUACUACCACA | 0.722 ± 0.062
27 | GCUCAGGAUACAAUACAACCUACUACCUCA | 1.9 ± 0.12
28 | GGAGACCAUACUAUACAACCAACUUCCUCA | 0.0446 ± 0.0088
29 | GGACUCGAUACUAUACAACGUACUACCUCA | 0.894 ± 0.054
30 | GCUCUGGAUACAAUUCAACCUACUACCUCA | 1.3 ± 0.075
31 | GGAGACCUAUCUAUACAACCUACUACCAGA | 0.306 ± 0.04
32 | GGUCUGCAUACUAAACAACCUACUACCUCA | 1.56 ± 0.12
33 | GGAGACCAUUCUAUACUACCUACUACCUCA | 0.197 ± 0.022
34 | GGAGACCUAACUAUACAACCUACUAACUCA | 0.84 ± 0.067
35 | GGAGACCAUAGUAUACAACCUACUACCUCA | 0.783 ± 0.048
36 | GGAGACCAUACUAUAACAACCUACUACCUCA | 0.984 ± 0.085
37 | GGACUGGAUACUUAUACAACCUACUACCUCA | 1.43 ± 0.12
38 | GGAGACGAUACUAUACAAGCUUCUACCUCA | 0.175 ± 0.015
39 | GGAGACCUAUGAUAUGUUCCUAGCUACCUCA | < 0.0001
40 | GGAGACGUUACUAUACUACCUACUACCUCA | 1.03 ± 0.082
